Some of the results follow. Single values are uncertain, as repeats are few or missing.
How the values were obtained:
Assay in all cases: cell count relative to DMSO control; melanoma cells; higher = more viable cells
Conditions in all cases: library dose: low library concentration; 72 h
[1] = test system: COLO792
[2] = test system: COLO800
[3] = test system: COLO829
[4] = test system: G361
[5] = test system: IPC-298
[6] = test system: IST-MEL1
[7] = test system: LB2518-MEL
[8] = test system: LOXIMVI
[9] = test system: MEL-HO
[10] = test system: MZ2-MEL
[11] = test system: MeWo
[12] = test system: RPMI7951
[13] = test system: RVH-421
[14] = test system: SkMel28
[15] = test system: SkMel2
[16] = test system: SkMel30
[17] = test system: SkMel5
[18] = test system: UACC257
[19] = test system: UACC62
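Note: cell number obtained by counting DAPI-stained nuclei in high-throughput microscope images with image analysis software, screen run in 1,536-well plates.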

| Structure (SMILES) | cell count [1] [%] | cell count [2] [%] | cell count [3] [%] | cell count [4] [%] | cell count [5] [%] | cell count [6] [%] | cell count [7] [%] | cell count [8] [%] | cell count [9] [%] | cell count [10] [%] | cell count [11] [%] | cell count [12] [%] | cell count [13] [%] | cell count [14] [%] | cell count [15] [%] | cell count [16] [%] | cell count [17] [%] | cell count [18] [%] | cell count [19] [%] |
| --- | --- | --- | --- | --- | --- | --- | --- | --- | --- | --- | --- | --- | --- | --- | --- | --- | --- | --- | --- |
| CC1(C)CCC(c2ccc(Cl)cc2)=C(CN2CCN(c3ccc(C(=O)NS(=O)(=O)c4ccc(N[C@H](CCN5CCOCC5)CSc5ccccc5)c(S(=O)(=O)C(F)(F)F)c4)cc3)CC2)C1 + O=S(=O)(c1ccccc1)N(CC(F)(F)F)c1ccc(C(O)(C(F)(F)F)C(F)(F)F)cc1 [T0901317] (first compound 0.4 µM, partner dose 1.4 µM) | 67.5 | 83.3 | 81.3 | 70.8 | 90.6 | 73.2 | 92 | 43.2 | 89.5 | 94.1 | 54.5 | 48.3 | 63.3 | 88.4 | 85.3 | 56 | 59.3 | 75.6 | 97.1 |
| O=C(/C=C/c1cccnc1)NCCCCC1CCN(C(=O)c2ccccc2)CC1 + Cc1ccc(NC(=O)c2cccc(N(C)C)c2)cc1NC(=O)c1ccc(O)cc1 [ZM336372] (first compound 0.01 µM, partner dose 2 µM) | 54.1 | 42.7 | 77.1 | 12.9 | 36 | 69.5 | 74 | 76.9 | 36.4 | 36.1 | 108 | 91.5 | 58.8 | 68.3 | 47.3 | 78.3 | 110 | 108 | 91.5 |
| Cc1ccc(Nc2nccc(N(C)c3ccc4c(C)n(C)nc4c3)n2)cc1S(N)(=O)=O [Pazopanib] + CC1(C)NC(=O)N(c2ccc([N+](=O)[O-])c(C(F)(F)F)c2)C1=O [nilutamide] (first compound 0.4 µM, partner dose 1 µM) | 88.6 | 103 | 83.1 | 97 | 95.9 | 101 | 107 | 63.5 | 98.5 | 84.3 | 95.2 | 99.1 | 87.5 | 90.3 | 105 | 91.1 | 88.7 | 95 | 91.5 |
| Cc1ccc(Nc2nccc(N(C)c3ccc4c(C)n(C)nc4c3)n2)cc1S(N)(=O)=O [Pazopanib] + O=C1NC(=O)/C(=C/c2ccc(-c3ccc(F)cc3O)o2)S1 [AS252424] (first compound 0.4 µM, partner dose 1 µM) | 95.8 | 127 | 103 | 90.5 | 77.8 | 90.8 | 73.5 | 102 | 85.2 | 67.6 | 86 | 96.2 | 100 | 94.7 | 94.3 | 99.3 | 85.7 | 97.5 | 77.4 |
| Cc1ccc(Nc2nccc(N(C)c3ccc4c(C)n(C)nc4c3)n2)cc1S(N)(=O)=O [Pazopanib] + CN(NC(=O)CC(=O)NN(C)C(=S)c1ccccc1)C(=S)c1ccccc1 [STA4783] (first compound 0.4 µM, partner dose 0.006 µM) | 61.7 | 60.3 | 73.9 | 67.2 | 74.8 | 69.2 | 72.7 | 52.1 | 82.3 | 77.2 | 94.3 | 90.7 | 90.3 | 94 | 101 | 91.5 | 97.2 | 82.7 | 69.9 |
| Cc1ccc(Nc2nccc(N(C)c3ccc4c(C)n(C)nc4c3)n2)cc1S(N)(=O)=O [Pazopanib] + N#Cc1c(O)c2c(-c3ccc(-c4ccccc4O)cc3)csc2[nH]c1=O [A769662] (first compound 0.4 µM, partner dose 2 µM) | 98.5 | 91.4 | 105 | 99.4 | 81 | 104 | 102 | 75.2 | 101 | 77.8 | 112 | 93.8 | 98.8 | 102 | 94.1 | 89.1 | 102 | 94.8 | 100 |
| O=C(/C=C/c1cccnc1)NCCCCC1CCN(C(=O)c2ccccc2)CC1 + Oc1nc(-c2ccc(C(F)(F)F)cc2)nc2c1CSCC2 [XAV939] (first compound 0.01 µM, partner dose 2 µM) | 64.4 | 32.8 | 63.7 | 26.6 | 52.4 | 85.6 | 95.8 | 96.7 | 62.7 | 81.8 | 103 | 88.8 | 78.8 | 87.9 | 75.7 | 96.9 | 70.4 | 94.2 | 86.2 |
| Cc1ccc(Nc2nccc(N(C)c3ccc4c(C)n(C)nc4c3)n2)cc1S(N)(=O)=O [Pazopanib] + O=C(Nc1ccccc1)c1cc([N+](=O)[O-])ccc1Cl [GW9662] (first compound 0.4 µM, partner dose 2 µM) | 101 | 156 | 68.2 | 100 | 78 | 98.8 | 105 | 81.4 | 104 | 78.1 | 96.8 | 97.2 | 95.7 | 107 | 104 | 83 | 96 | 80.7 | 107 |
| CC1(C)CCC(c2ccc(Cl)cc2)=C(CN2CCN(c3ccc(C(=O)NS(=O)(=O)c4ccc(N[C@H](CCN5CCOCC5)CSc5ccccc5)c(S(=O)(=O)C(F)(F)F)c4)cc3)CC2)C1 + NCC(=O)Nc1ccc(-n2nc(C(F)(F)F)cc2-c2ccc3c(ccc4ccccc43)c2)cc1 [OSU03012] (first compound 0.4 µM, partner dose 1 µM) | 51.8 | 38 | 78.4 | 95.3 | 68.3 | 63.8 | 85.9 | 59.6 | 63.7 | 86.9 | 36 | 73.8 | 64.5 | 69.4 | 49.3 | 17 | 42.3 | 62.9 | 104 |
| Cc1ccc(Nc2nccc(N(C)c3ccc4c(C)n(C)nc4c3)n2)cc1S(N)(=O)=O [Pazopanib] + COc1ccc(-c2ccc3c(N4CCOCC4)nc(N4C[C@@H](C)O[C@@H](C)C4)nc3n2)cc1CO [KU0063794] (first compound 0.4 µM, partner dose 0.02 µM) | 113 | 106 | 107 | 87.4 | 85.3 | 99.8 | 92.2 | 91.6 | 94.1 | 82.2 | 98.9 | 75.6 | 90.9 | 85 | 101 | 87.8 | 89.6 | 69.2 | 92.7 |
| CC1(C)CCC(c2ccc(Cl)cc2)=C(CN2CCN(c3ccc(C(=O)NS(=O)(=O)c4ccc(N[C@H](CCN5CCOCC5)CSc5ccccc5)c(S(=O)(=O)C(F)(F)F)c4)cc3)CC2)C1 + CN(C)S(=O)(=O)c1ccc2c(c1)/C(=C/c1cc3c([nH]1)CCCC3)C(=O)N2 [SU6656] (first compound 0.4 µM, partner dose 0.4 µM) | 54.7 | 47 | 105 | 67.9 | 94.4 | 74.1 | 88.8 | 123 | 83.8 | 101 | 62.5 | 58.2 | 60.3 | 100 | 96.4 | 77.3 | 68.3 | 70.4 | 98.7 |
| CC1(C)CCC(c2ccc(Cl)cc2)=C(CN2CCN(c3ccc(C(=O)NS(=O)(=O)c4ccc(N[C@H](CCN5CCOCC5)CSc5ccccc5)c(S(=O)(=O)C(F)(F)F)c4)cc3)CC2)C1 + COc1cc2ncnc(Nc3ccc(Oc4ccccc4)cc3)c2cc1OC [SrcI1] (first compound 0.4 µM, partner dose 2 µM) | 63.1 | 28 | 104 | 102 | 107 | 81.3 | 119 | 82.9 | 82.3 | 97 | 72.2 | 80 | 78.3 | 96.5 | 103 | 88.8 | 77.2 | 94.5 | 84.5 |
| O=C(/C=C/c1cccnc1)NCCCCC1CCN(C(=O)c2ccccc2)CC1 + O=C(O)c1ccc(-c2c[nH]c3ncc(-c4ccccc4)cc23)cc1C1CCCC1 [GSK650394] (first compound 0.01 µM, partner dose 0.16 µM) | 51.4 | 24.8 | 58.9 | 7.92 | 43.8 | 76.6 | 81.7 | 121 | 49.4 | 38.6 | 112 | 105 | 44 | 76 | 39.8 | 97 | 93.8 | 63.3 | 87.3 |
| Cc1ccc(Nc2nccc(N(C)c3ccc4c(C)n(C)nc4c3)n2)cc1S(N)(=O)=O [Pazopanib] + O=c1cc(-c2cccc3c2Sc2ccccc2S3)oc(N2CCOCC2)c1 [KU55933] (first compound 0.4 µM, partner dose 1 µM) | 95.4 | 103 | 119 | 86.8 | 78.6 | 107 | 128 | 111 | 105 | 79.7 | 105 | 91 | 116 | 101 | 104 | 95.5 | 106 | 100 | 120 |
| O=C(/C=C/c1cccnc1)NCCCCC1CCN(C(=O)c2ccccc2)CC1 + COc1cc(Nc2ncc(F)c(Nc3ccc4c(n3)NC(=O)C(C)(C)O4)n2)cc(OC)c1OC [Tamatinib] (first compound 0.01 µM, partner dose 0.4 µM) | 44.3 | 22 | 67.5 | 13.8 | 45.6 | 67.3 | 71.8 | 67.9 | 37.4 | 50.2 | 94.3 | 95.4 | 60.4 | 81.5 | 57.3 | 69.3 | 73.2 | 54.2 | 78.7 |
| O=C(/C=C/c1cccnc1)NCCCCC1CCN(C(=O)c2ccccc2)CC1 + CN(NC(=O)CC(=O)NN(C)C(=S)c1ccccc1)C(=S)c1ccccc1 [STA4783] (first compound 0.01 µM, partner dose 0.006 µM) | 47.6 | 49.4 | 58.3 | 7.96 | 40.7 | 45.4 | 61.9 | 108 | 38.7 | 38.6 | 99.7 | 95.4 | 37.7 | 86.7 | 57.9 | 90.5 | 97 | 70.5 | 93.6 |

Source: the supplement of paper PMC4604168 (melanoma cell lines)
